Laboratory results as given in PubChem BioAssay AID485344 (National Center for Advancing Translational Sciences (NCATS), 2010).
Hit rate of the full screen: of about 340,000 compounds, about 6,900 (2%) were called active. No stated cut-off is given here; in the data, active means inhibition above about 30%; inactive means below that, where a call was filed. The list shows a part of the results, in another mix than the full data. Where no call is shown, the source filed none.

Target: D(2) dopamine receptor (Homo sapiens) (UniProt P14416)
Sequence of UniProt P14416 (P14416 whole entry, looked up): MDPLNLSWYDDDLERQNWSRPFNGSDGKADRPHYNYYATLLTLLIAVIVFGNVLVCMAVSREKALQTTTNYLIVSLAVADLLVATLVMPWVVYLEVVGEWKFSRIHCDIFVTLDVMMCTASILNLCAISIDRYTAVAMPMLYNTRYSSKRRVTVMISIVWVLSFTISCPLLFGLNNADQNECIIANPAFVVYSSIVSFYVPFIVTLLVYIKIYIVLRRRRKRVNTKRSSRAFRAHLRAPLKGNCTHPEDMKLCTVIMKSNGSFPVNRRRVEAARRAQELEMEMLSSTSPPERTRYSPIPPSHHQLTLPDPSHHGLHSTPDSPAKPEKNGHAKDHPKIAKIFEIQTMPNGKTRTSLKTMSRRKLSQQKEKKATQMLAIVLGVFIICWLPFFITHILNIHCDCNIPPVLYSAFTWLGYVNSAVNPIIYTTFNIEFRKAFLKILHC
Assay: HTS Assay for Allosteric Antagonists of the Human D2 Dopamine Receptor: Primary Screen for Antagonists; further: 0% is about no effect
Conditions: HEK293 TREx D2 cells, calcium flux, dopamine EC80; at 10 µM; stronger effect = higher value
Method in brief: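 HEK293 T-REx D2 cells, tet-induced, calcium dye no-wash. Cpd pintool add, 180 s kinetic, then EC80 DA, 180 s kinetic. Ca flux read.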

Compound	inhibition
COc1ccccc1N1CCN(Cc2nc(N)nc(Nc3ccc(C)c(Cl)c3)n2)CC1	active: 54.8%
CCN(CC)C(=O)Cn1c(=O)n(CCc2ccccc2)c(=O)c2ccccc21	-2.51%
Cc1cc(Nc2ccc(Br)c(C)c2)n2nc(-c3ccco3)nc2n1	12.1%
COc1cc(O)cc2cc3c(c(O)c12)C(=O)CC(C)(O)O3 (stereo unspecified)	active: 36.9%
COc1ccc(S(=O)(=O)NCC(c2ccc(N(C)C)cc2)N2CCc3ccccc32)cc1F (stereo unspecified)	5.85%
Cc1cc(C)n2nc(CNS(=O)(=O)c3ccccc3)nc2n1	6.16%
CCOC(=O)c1ccccc1NC(=O)COC(=O)CC(C)(C)CC1=NS(=O)(=O)c2ccccc2N1	10.9%
Cc1cc2nc(CCN(C(=S)NCC3CCCO3)C3CCCC3)[nH]c2cc1C (stereo unspecified)	active: 31.2%
COc1cccc(NC(=O)c2oc3ccc(S(=O)(=O)N4CCCCCC4)cc3c2C)c1	-17.6%
Cc1ccc(NC(=O)c2ccc3snnc3c2)cc1C	6.83%
COc1ccccc1NC(=O)C1CCCN(c2ncnc3onc(-c4ccc(F)cc4)c23)C1 (stereo unspecified)	0.387%
CCC(C)NC(=O)c1c(C)oc2nc(C)nc(N3CCOCC3)c12 (stereo unspecified)	-9.29%
CCOC(=O)C(C)Sc1nc(-c2ccccc2)ccc1C#N (stereo unspecified)	9.26%
COc1cccc(NC(=O)C2CCN(S(=O)(=O)c3ccc4[nH]c5c(c4c3)CCCCC5)CC2)c1	-2.85%
COC(=O)c1ccccc1NC(=O)c1nn(-c2ccc(OC)cc2)c(=O)c2c1c1ccccc1n2C	8.81%
COc1cccc(NC(=O)CN(c2cccc(OC)c2)S(C)(=O)=O)c1	active: 38.1%
COc1ccc(-c2cc(C(=O)NCCc3ccc(OC)c(OC)c3)c3c(-c4ccc(F)cc4)[nH]nc3n2)cc1	2.28%
CCOC(=O)c1ccc(NC(=O)Cn2c3ncccc3c(=O)n2-c2ccc(C)c(C)c2)cc1	-4.15%
CC1(C(=O)OCC(=O)NC(=O)NCc2ccccc2)CC1(Cl)Cl (stereo unspecified)	active: 31.3%
CC(C)CCNC(=O)C(=O)Nc1c2c(nn1-c1ccc(Cl)cc1)CSC2	-11.3%
c1ccc(-c2cc3c(NCC4COc5ccccc5O4)ncnc3s2)cc1 (stereo unspecified)	active: 31.8%
CC(=O)Nc1cccc(NC(=O)CSc2ccc(-c3sc(-c4ccccc4)nc3C)nn2)c1	-15.4%
O=C(O)CCc1ccc(-c2ccccc2)n1-c1ccc(C(=O)O)cc1	-5.17%
COc1cc(OC)c2c(-c3ccccc3)cc(=O)oc2c1C(CC(=O)N1CCOCC1)c1ccc(N(C)C)cc1 (stereo unspecified)	active: 31.2%

Compound	inhibition
Cc1cccc(Nc2nnc(-c3ccc(C)c(S(=O)(=O)N4CCN(C)CC4)c3)c3ccccc23)c1	10.9%
Cc1ccc(Cl)cc1NC(=O)Cn1c(=O)n(C(C)C)c(=O)c2oc3ccccc3c21	11.7%
Cc1nn2c(=O)cc(COC(=O)c3cccc(NC(=O)c4ccc(F)cc4)c3)nc2s1	-9.25%
Cc1cccc(C(C)C)c1NC(=O)c1ccc2c(c1)CCN2S(C)(=O)=O	22.8%
CCOc1ccccc1CNC(=O)C1CCN(S(=O)(=O)c2c(C)noc2/C=C/c2ccccc2F)CC1	8.36%
CCn1c(C(=O)NCc2ccccc2OC)cc2sccc21	5.1%
COc1ccc(CC(=O)Nc2cc(-c3cn4cccnc4n3)ccc2C)cc1OC	4.79%
CC1=C(c2ccc(C(C)C)cc2)S(=O)(=O)N=C1N1CCC(C(=O)NCc2ccccc2)CC1	-7.39%
COc1ccc(-n2ccnc(NCc3cccs3)c2=O)cc1OC	1.35%
COCCn1ccc2c(OCC(=O)Nc3c(C)cc(C)cc3C)cccc2c1=O	9.79%
COCCCNC(=O)Cn1nc(N2CCN(c3ccccc3)CC2)ccc1=O	-0.555%
Cn1c(-n2cccc2)c(-c2c(-c3ccc(F)cc3)[nH]c3c2c(=O)n(C)c(=O)n3C)c(=O)n(C)c1=O	3.32%
Cc1ccc(S(=O)(=O)n2nc(-c3ccc(Cl)cc3)nc2NCc2ccccc2)cc1	4.16%
CC1CCc2c(sc3nnn(Cc4cccc(C(=O)OC(C)C)c4)c(=O)c23)C1 (stereo unspecified)	15.3%
CN(C)CC/C=C1\c2ccccc2COc2ccccc21	active: 50.7%
O=C1CSc2ccc(S(=O)(=O)NCc3ccc(Cl)cc3)cc2N1	active: 36%
CC(C)=CCC/C(C)=C/C(=O)O	active: 55.4%
CC(=O)N1CCc2c(sc3c2c(=O)n(-c2ccc(F)cc2)c(=O)n3Cc2ccc(C#N)cc2)C1	2%
O=C(Nc1cccc(C(F)(F)F)c1)c1cc(-c2ccc(Cl)s2)nc2ccccc12	-5.71%
O=C(O)Cn1c(-c2cccs2)cc2cc(Cl)ccc21	15%
O=C(Nc1cccs1)Nc1ccc(F)cc1F	-26%
O=C(Nc1nnc(SCc2ccc(F)cc2)s1)c1cnccn1	active: 33.4%
COc1cccc(COC(=O)c2ccc(-c3nnn(Cc4cccc(OC)c4)n3)cc2)c1	5.75%
CCOc1ccc(NC2SC(=O)N(Cc3ccccc3)C2=O)cc1 (stereo unspecified)	1.33%

Compound	inhibition
COc1ccccc1OCCCCN1CCN(C(c2ccccc2)c2ccccc2)CC1	active: 61%
Cc1ccccc1Cn1cnc2c(NS(C)(=O)=O)c(C)c(C)cc21	active: 34.8%
CCCCN(CC)C(=O)CSc1nc2n[nH]c(C)c2c(=N)n1-c1cccc(C)c1	0.5%
COc1cccc2c1cc1c(=O)n(CC(=O)N3CCN(c4cccc(C(F)(F)F)c4)CC3)nc(C)n12	24.5%
CCOc1ccccc1NC(=O)C(CC(C)C)NC(=O)C1CCC(C)CC1 (stereo unspecified)	12.1%
Cc1ccc(NC(=O)CCc2c(C)nn(-c3ccc(N4CCOCC4)nn3)c2C)c(C)c1	-4.32%
O=C(COc1ccccc1Cl)Nc1nnc(S(=O)(=O)N2CCCC2)s1	-11.5%
COc1ccc(-n2nc3ccc(NC(=O)c4ccc(C#N)cc4F)cc3n2)cc1Cl	-3.87%
O=C(NCc1ccccc1)c1nc(S(=O)(=O)Cc2ccc(F)cc2)ncc1Cl	-10.6%
CCOc1ccc(C2C(C(=O)Nc3ccccc3)=C(C)Nc3nc(SCc4cccc(OC)c4)nn32)cc1 (stereo unspecified)	-9.64%
COc1ccc(NC2c3ccccc3C(=O)N2c2ccccn2)cc1 (stereo unspecified)	active: 41.1%
Cc1ccc(/C=C/c2onc(C)c2S(=O)(=O)N2CCC(C(=O)N3CCN(c4cccc(C)c4)C(C)C3)CC2)cc1 (stereo unspecified)	21%
CC(C)CCOc1ccc(C2N=C(N)Nc3nc4ccccc4n32)cc1 (stereo unspecified)	11%
CCc1ccc(OCc2nc(-c3ccc(-n4cccc4)cc3)no2)cc1	4.25%
CCc1nc(-c2cc(S(=O)(=O)N3CCN(c4ccc(OC)cc4)CC3)ccc2OC)no1	-17.2%
Cc1nn(C(C)C(=O)NC2CCC(C)CC2)c(=O)c2c1sc1ccccc12 (stereo unspecified)	15.5%
CCOc1ccc(-c2cn3c(n2)sc2cc(C(=O)NCCc4ccc(OC)cc4OC)ccc23)cc1	10.4%
O=S(=O)(NCCc1csc2nc(-c3ccccc3)nn12)c1cccs1	-1.09%
CC1CN(C(=O)CCC(=O)NCc2cccc(Cl)c2)c2ccccc2S1 (stereo unspecified)	6.72%
CC1CCN(CC2CCN(C(=O)NCc3ccc(F)cc3)CC2)CC1	-28.4%
O=C(O)c1ccc(Cn2cnc3cccnc32)cc1	26.3%
COc1ccc(S(=O)(=O)c2cnc3cc(OC)c(OC)cc3c2N2CCCC(C)C2)cc1 (stereo unspecified)	21%
COc1ccccc1C(=O)N(Cc1nc(-c2cccc(C)c2)no1)C(C)C	20.7%
COc1ccc(C2=C(Nc3ccc(Br)c(C)c3)c3ccccc3C2=O)cc1	-6.49%

Compound	inhibition
COc1ccc(NC(=O)c2nn(C)c3c2CS(=O)(=O)c2ccccc2-3)cc1Cl	-0.537%
CC(C)Nc1ccc(-c2nc(-c3ccncc3)no2)cc1[N+](=O)[O-]	18.4%
COc1ccc(N2CCN(Cc3nc4c(c(=O)[nH]c(=O)n4C)n3Cc3ccc(C)cc3)CC2)cc1	-5.8%
COc1ccc(N(CC(=O)NC(C)c2ccccc2)S(=O)(=O)c2c(C)nn(C)c2C)cc1 (stereo unspecified)	-3.15%
CCOC(=O)c1c(C)[nH]c(C)c1S(=O)(=O)N1CCCC(C(=O)N2CCN(c3ccccc3F)CC2)C1 (stereo unspecified)	4.37%
CCc1nn(CC(=O)N2CCN(c3cccc(OC)c3)CC2)c(=O)c2cc3occc3n12	12.2%
Cc1ccc(NC(=O)CN2C(=O)CCc3ccccc32)cc1C	3.5%
Cc1ccc(OCc2nc(-c3ccc(C(=O)NCCc4ccc(Cl)cc4)cc3)oc2C)cc1	1.49%
Cn1c(=O)c2sccc2n2c(CCC(=O)N3CCN(c4ccc(F)cc4)CC3)nnc12	-0.0302%
CCCCc1ccc(NC(=O)c2cc(-c3ccc(C)c(F)c3)on2)cc1	24.9%
CCC(=O)N1CCc2cc(S(=O)(=O)NCCC(=O)N3CCN(c4ccccc4)CC3)ccc21	active: 34.3%
COc1ccccc1NC(=O)CSc1nc(O)c(C/C=C/c2ccccc2)c(=O)[nH]1	6.69%
CCc1nnc(NC(=O)CSc2nccn2Cc2ccc(C)cc2)s1	3.18%
COc1ccc(CNC(=O)c2nc(SCc3ccc(C)cc3)ncc2Cl)cc1	-24%
COc1ccc(Cn2c(=O)n(-c3ccc(F)c(Cl)c3)c(=O)c3c2c2cc(OC)ccc2n3C)cc1	-3.78%
O=C(NCCCN1CCOCC1)c1ccc([N+](=O)[O-])cc1[N+](=O)[O-]	active: 48.1%
CCOC(=O)c1c(S(=O)(=O)N2CCC(C(=O)NCc3cccc(C)c3)CC2)c(C)n(C)c1C	9.82%
COC(=O)c1ccc(NC(=O)CN2CCN(CCO)CC2)cc1	active: 33.2%
Cc1cc(N2CCN(C)CC2)nc2ccc(NC(=O)c3ccc(C(C)(C)C)cc3)cc12	-2.87%
Cc1ccc(-n2nc(C(=O)Nc3ccc(F)cc3Cl)c(=O)n(C)c2=O)cc1	10.7%
CN(Cc1ccccc1)c1nnc(NC(=O)Nc2cccc(Br)c2)s1	11.4%
Cc1ccc(C(=O)n2nc(C)c(S(=O)(=O)N3CCCCCC3)c2C)cc1C	12.6%
COc1ccc(N2CC(NC(=O)c3cccs3)CC2=O)cc1 (stereo unspecified)	-19.6%
COC(=O)Cn1c(=NC(=O)c2ccc3c(c2)OCCO3)sc2ccccc21	-24.6%
